Assay results taken from the supplement of paper PMC11417369.
± gives the standard deviation of the averaged measurements. Some of the results follow.

What follows are sequences tested on PfAP2-I AP2 domain 3 (GST-tagged) (assay: gcPBM binding intensity (ln(normalized median fluorescence intensity)); higher = stronger DNA binding).
Procedure, shortened: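 GST-fused DNA-binding domains of P. falciparum, expressed in E. coli, were applied at about 25 μg on average for 1 h to an Agilent 4 × 180k array of primer-extended double-stranded 36-bp intergenic genomic probes and negative controls. Binding intensity is the highest Masliner-normalised natural-log median intensity across replicate spots of either probe orientation, measured with Alexa488 anti-GST antibody and a 488 nm scan.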

Sequence	gcPBM binding intensity (ln)
TACAATCCATATTGTTGTACATTTATAAAATTTACA [XGTACX_site3053]	7.51 ± 0.26
CAATGGTACATACATACACACACACTAATAAAAAAA [CACACA_site8450]	7.91 ± 0.61
GTATATATATAAGAAGAAATATATAAATAAAATATA [CACACA_negctrl_site503]	7.47 ± 0.61
TATTATGTTTATTAAACATGCATATATTTATTTATA [TGCATGCA_site187]	7.51 ± 0.47
ATATTTTATCATGTTTAATATTTATGTGGACATAAA [GTGCAC_negctrl_site275]	7.84 ± 0.28
AGTTGGATACGAAGATGTACAATAATAATAATTAAG [XGTACX_site3561]	7.99 ± 0.61
ACATTTTATATATGTAGTACATATTATAGATAATTT [XGTACX_site1976]	7.75 ± 0.45
TATTTTATTTTTTTATGTACACAAAAAAAAAAAAAA [XGTACX_site945]	8.24 ± 0.38
TCACTATAATAATTTACACACATTTTAAGAAAATGG [CACACA_site5867]	7.67 ± 0.38
ATCAAAAACATACCTACACACACAATATGTATATAT [CACACA_site9171]	7.83 ± 0.53
AAGTTATTTATATATACACACAAATATAAATAATAT [CACACA_site1228]	7.68 ± 0.41
CTCAAATTTATTAGTGGTACATAACCAAGGAAATAA [XGTACX_site225]	8.03 ± 0.52
TTAATTGAAACTTATTGTACTTTTTTTTTTTTTTTT [XGTACX_site8162]	8.64 ± 0.39
ATAAATAAAAATAGAACACACATATGTTTTTTTTTT [CACACA_site3556]	7.58 ± 0.57
CCTAGAAAAAAGAACTGTACATATATATATAAATAT [XGTACX_site1680]	7.75 ± 0.42
ATATGCAGAGACTGTTTGCACTTTTTTATTTTATGT [GTGCAC_site9695]	9.63 ± 0.19
TGAAAAAATATAATTTGTACATATCAGGCAAAAATG [XGTACX_site1824]	7.96 ± 0.51
AGGACAAGGGTTACATGTACATATATATATATATAT [XGTACX_site901]	9.66 ± 0.15
TTTATTAATTTATAGTGTACATATTAATAATATATT [XGTACX_site7949]	7.8 ± 0.36

Sequence	gcPBM binding intensity (ln)
ATATATATTATATATTGTACATATTATATTCATTAT [XGTACX_site1766]	7.82 ± 0.44
AAAAAATAAAACATATATAATATATAATATATATAT [GTGCAC_negctrl_site447]	8.62 ± 0.12
AATGTGAAAACGTGTACACATTTTATTTAATTTATC [CACACA_site5966]	7.98 ± 0.4
ATAAATTATATTATTGAACACACGTTTGGTAATGTT [CACACA_site2662]	7.77 ± 0.55
AAAAAAATAATAAAAAGTACAAAATGTAGAAAATGT [XGTACX_site5018]	8.1 ± 0.75
TTTTTTTTTATAGCTAAACACACATAAGAATATATG [CACACA_site8282]	7.72 ± 0.69
TATAAATATAAAAGGAGTACAAATATATATATATAT [XGTACX_site1386]	9.29 ± 0.35
AGTTATAATAAAAAATGTACGTATTATCATTAAGAA [XGTACX_site4244]	7.86 ± 0.55
GAAAATAAAAAATATGAACACACATATATAACAAAA [CACACA_site7975]	7.85 ± 0.49
TCCTAATATATGTATGCACACACAATATATACATAT [CACACA_site9111]	9.01 ± 0.16
AAAAAAATTAAACATACACACGTTACTATTTTTATA [CACACA_site5009]	7.61 ± 0.49
AAAATTGATATATGCACACATATATATATTAAATAT [CACACA_site763]	8.965 ± 0.064
AAAAAAAAAAAAAACACACATACACATATATTTTTA [CACACA_site3893]	8.21 ± 0.43
TTTCATTCTGGTATCACACATTTATTTTCTAGTTTA [CACACA_site4286]	8.01 ± 0.65
AGGAAAAAATCGAGTAGTACACATTTAGAAATATAA [XGTACX_site8019]	7.87 ± 0.49
ATATCACATATATATATATATATATATATATATATA [XGTACX_negctrl_site463]	9.14 ± 0.23
AACAAGGCCCGGTACTGTACATTTTTTCATAACATT [XGTACX_site6134]	7.51 ± 0.69
TATATACATATATACACACACATATATTATATATAT [CACACA_site275]	8.3 ± 0.54
GTATGTATATTTATCTGTACATATTTATGTATTCTT [XGTACX_site2112]	7.66 ± 0.45

Sequence	gcPBM binding intensity (ln)
TATTAATAATTAAGTTGTACATTAATTAATATACTG [XGTACX_site6994]	7.46 ± 0.41
TTTAATATTAATAATTGTACATTTTCATAAATACGC [XGTACX_site2837]	7.64 ± 0.44
TTTAAACCTTAATATTGTACGCAAAAAAAAAAAGAA [XGTACX_site3757]	8.12 ± 0.45
TTTATGTAGGAACTAACACACATTGTAAGATTCAGA [CACACA_site1998]	7.53 ± 0.56
GGAACTTTTGGAGGTGCATGCGGAGCAATCTTTTCA [TGCATGCA_site454]	8.36 ± 0.32
TTATTAATTTATAAATGTACGAATTTTTTATTTAAC [XGTACX_site7605]	7.7 ± 0.42
CATATCAATAATATCACACATATATGTGATTTTATT [CACACA_site5053]	7.45 ± 0.54
CCCCTTAATTAAAGGAGTACTATTTGTGAATAATAT [XGTACX_site4715]	8.62 ± 0.19
TTTTTTTTTTATTTTGCACACTTCTAATTTAGTTGT [CACACA_site3429]	10.2 ± 0.16
AAAAAAGTAAAAAGTGCATGTAAAATATAAGTATCT [TGCATGCA_site55]	9.05 ± 0.3
GTTATTCTTAATTTTTGTACACATTTTTATATTATT [XGTACX_site7227]	8.35 ± 0.4
AAAAAAATTAAACACACACACACATATATATATATA [CACACA_site4718]	9.53 ± 0.18
GAACAAAAGGAATGTTGTACATAAAAAATGAAAAAT [XGTACX_site3929]	8.03 ± 0.52
ATATATATGTATATGTGTACTTATATTTGTCATTTT [XGTACX_site1317]	7.87 ± 0.6
TCCTGCCTCTCTTTGGTGCGTTGTAACCCTCGAGGA	10.3 ± 0.11
AAAATTTAATATAATGCACACATAAAAAAAAATTCA [CACACA_site8640]	10.9 ± 0.92
TAAATTATTTATAAAGCACACAAGAAAAAATAAAAT [CACACA_site2132]	9.96 ± 0.52
ATATTAATATACATATGTACATATATATATATATAT [XGTACX_site7425]	9.31 ± 0.37
TAAAGGCAAACAAACACACACACATATATACATATA [CACACA_site2123]	7.82 ± 0.26
